Measured values from patent US20240207407A1 (WALTER AND ELIZA HALL INSTITUTE OF MEDICAL RESEARCH, published 2024).
Each block holds one binder with its values, some of them ahead of it.

Molecular target: T1, Recombinant soluble EGFRvIII protein (extracellular domain, ACRO Biosystems Cat EGI-H52H4) (human, UniProt P00533 fragment, labelled with ATTO 488 NHS ester in the bead assay; unlabelled in SPR)
T1 construct: Bought protein consisting of the extracellular domains, without the transmembrane or internal domains; also called recombinant EGFRvIII; EGFRvIII-ATTO488
Assay: SPR (ProteOn XPR36), biotinylated scFv captured on streptavidin chip, soluble EGFRvIII ECD injected, 1:1 Langmuir kinetic fit
Procedure: Recombinant EGFR Cat EGR-H5222 Lot: R102-616S1-A3 and EGFRvIII (protein Cat EGI-H52H4 Lot: 2144-65RS1-BG was obtained from Acrobiosystems and reconstituted to 1 ug/ul in PBS before dilution into PBS-T and injection over test and control surfaces at the concentrations indicated, (flow rate 30 μl/min). GFP protein was injected over chips to serve as negative control for non-specific scFv binding. A 10 mM glycine HCl buffer (pH 3) used to strip injected protein from chip between injections. Results from at least two independent injections were analyzed. After subtraction of data from control cells, interactions analyzed with ProteOn Manager software (version 2.1). KD values were derived from kinetic fit analysis using 1:1 Langmuir binding model.
Surface plasmon resonance (SPR) experiments were performed using a ProteOn XPR36 instrument (Bio-Rad) to determine the binding characteristics of GCT01 and GCT02 to EGFRvIII. Biotinylated GCT01, GCT02 and GFP scFv chains (200-400 RU) were captured onto separate streptavidin-coupled sensorchips. A separate flow cell containing immobilized streptavidin without coupled scFv served as control channel.
Both GCT01 and GCT02 scFv clones bound specifically to recombinant EGFRvIII protein over EGFR (wild type) recombinant protein as determined by Surface plasmon resonance (SPR). GFP protein was used as a negative control. […]

Kd: 0.327 nM
B1: GCT02 scFv (scFv)
scFv: NFMLTQPHSVSESPGKTVTISCTRSSGSIASNYVQWYQQRPGSAPTTVIYEDNQRPSGVPDRFSGSIDSSSNSASLTISGLKTEDEADYYCQSYDLAADVRVVFGTGTKVTVSSQTGGSGGGGSGGGGSGGGGS[letters of about 100 residues left out]GGENTFESHPVAFDIWGQGTMVTVSS
modifications: biotinylated (AviTag fusion) in the bead, SPR and flow cytometry assays
notes: It was produced as a His6- and AviTag-fusion; also called clone 205

Kd: 0.0457 nM
B2: GCT01 scFv (scFv)
scFv: QSVLTQPPSVSVSPGQTASITCSGDKLGDKYACWYQQKPGQSPVLVIYQDSKRPSGIPERFSGSNSGNTATLTISGTQAMDEADYYCQAWDSDGKATVVFGTGTKVTVSSQTGGSGGGGSGGGGSGGGGS[letters of about 100 residues left out]EQWEGDYFSAFDIWGQGTMVTVSS
modifications: biotinylated (AviTag fusion) in the bead, SPR and flow cytometry assays
notes: It was produced as a His6- and AviTag-fusion; also called clone 70
